This is one part of the list. At the low end of the ranking, values are background and their order means little.
Biological target: T1, GST-Rok (full length) (UniProt O34857)
T1 sequence: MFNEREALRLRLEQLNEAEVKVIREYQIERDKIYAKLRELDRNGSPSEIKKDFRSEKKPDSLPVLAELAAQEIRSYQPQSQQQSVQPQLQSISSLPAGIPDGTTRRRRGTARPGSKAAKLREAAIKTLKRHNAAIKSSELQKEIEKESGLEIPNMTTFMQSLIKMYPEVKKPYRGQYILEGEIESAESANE
Assay: protein binding microarray;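 further: rank score from −0.5 (least bound) to 0.5 (best bound)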
Conditions: Rok is a gene silencer of Bacillus subtilis; high values mean tight binding; most listed sequences are background and not binding sites; double strand, one strand shown

Row | Sequence | binding signal [E-score]
1 | CATGTTAA | 0.209
2 | CGTATCCC | 0.00794
3 | GGACTACC | -0.104
4 | AGAATAAC | 0.239
5 | AAGATCAT | 0.014
6 | GCGTAACA | 0.167
7 | GAATCAGA | 0.181
8 | ACTTTGTA | 0.226
9 | GCGTCTCA | -0.21
10 | CAAAACTA | 0.383
11 | GCATTTGA | 0.0429
12 | CCGAATAG | -0.00823
13 | ACACTGTA | 0.173
14 | CTCTCTCA | -0.0746
15 | GTCATAAA | 0.154
16 | AATTGCCC | -0.11
17 | AACCAGTA | 0.285
18 | CACGTTGC | -0.144
19 | CTGCTATC | 0.0933
20 | CTTCTCAC | -0.193
21 | AAAATTGA | 0.214
22 | CCGATCCA | 0.0174
23 | CCAATAAC | 0.00293
24 | AATGCAAC | 0.164
25 | ATCGTAAT | 0.213

Row | Sequence | binding signal [E-score]
26 | AGGCACGA | -0.0894
27 | CCGTAAGA | 0.0085
28 | AGCGTACG | 0.146
29 | GTACCAAC | 0.0142
30 | TCCAAACA | -0.0748
31 | CGTTCCAA | 0.101
32 | AATACTAT | 0.359
33 | GTATCGGA | -0.205
34 | TCTGTGCA | 0.0704
35 | AATTATCC | 0.185
36 | CGTCATAC | 0.0132
37 | AGCGACAT | 0.0948
38 | AAGTATTG | 0.203
39 | AAATTGCG | 0.0994
40 | TCTACTCA | 0.206
41 | AAAAAGGT | 0.0208
42 | AGGTTCAC | -0.189
43 | CGGAATAA | 0.0916
44 | CTTGGCCC | -0.312
45 | CCGACCAC | -0.391
46 | GTATAGAA | 0.329
47 | CTCCCTCA | -0.269
48 | ATCGCATG | 0.00366
49 | GTTAGAAC | 0.0808
50 | CAGTGAAG | -0.317

Row | Sequence | binding signal [E-score]
51 | CCCGCTAA | -0.146
52 | AAAGCCGG | -0.147
53 | GCCCCTCC | -0.32
54 | ACGTTGCG | -0.0944
55 | AGTGTGCC | -0.061
56 | GGCTCCAA | -0.281
57 | AATGTGAC | 0.0254
58 | CGGGAGTA | -0.076
59 | TGACATAA | 0.0752
60 | CCACGCTA | 0.0112
61 | GGGCGTAC | -0.0506
62 | CGTTTCTA | 0.283
63 | CAAACGGA | 0.0334
64 | ATGCTTAC | -0.0838
65 | ACGAAGAC | -0.064
66 | ATCTGCAG | 0.238
67 | GAGGTCCA | -0.0564
68 | CTCATTAA | -0.101
69 | GAAAGGTA | 0.194
70 | CTATATCC | 0.0894
71 | TGGATAAA | 0.0935
72 | CTGGGGTC | -0.366
73 | CACTTTAG | -0.146
74 | ATCGGACG | -0.104
75 | CTTTATGC | -0.139

Row | Sequence | binding signal [E-score]
76 | ACGCGACT | -0.0984
77 | AGACGTAT | 0.133
78 | GCTGGATA | -0.108
79 | CGCTGGGA | -0.324
80 | GAACCTCC | -0.289
81 | GATAAAAA | 0.212
82 | TACCGGCA | -0.0258
83 | CTCTCCTA | -0.0294
84 | ATAATCTG | -0.00843
85 | AATTTCAA | 0.117
86 | AGTGAACC | -0.281
87 | CTATCGAG | 0.0507
88 | CTGTCAGA | -0.0485
89 | ATGAAGTA | 0.207
90 | ACGCAACC | 0.0646
91 | CCGCCTCG | -0.297
92 | TACAGTAA | 0.287
93 | AAGCGCGA | 0.109
94 | CACAATTA | 0.177
95 | ACCGAGTC | 0.0913
96 | CAGTCCAG | -0.25
97 | CCTAGGAA | -0.0674
98 | AGTAATCA | 0.0154
99 | CTCACTTC | -0.126
100 | TAGTCTCA | -0.115

Row | Sequence | binding signal [E-score]
101 | CCGTACCC | -0.0819
102 | AAGACTGG | -0.0941
103 | CACATGGC | 0.0767
104 | ATTGGAGC | -0.09
105 | CTAGTTGC | 0.281
106 | ATGACATC | -0.0238
107 | GCAGATAA | 0.173
108 | AGTTAATC | 0.2
109 | CGTGGAAC | -0.15
110 | TAGGGAGA | -0.229
111 | ACATAGCT | 0.15
112 | GGCCTCCC | -0.446
113 | AAATACAA | 0.255
114 | AGCAACTA | 0.231
115 | ACGCTCAG | -0.0715
116 | TCTTTGAA | -0.0119
117 | AATGTCCT | -0.0926
118 | GGTTGATA | 0.118
119 | TTGACCAA | 0.036
120 | ACTAATTC | 0.359
121 | AATGTCCG | -0.0312
122 | ACCTTCGC | 0.0444
123 | TACGAAGA | 0.222
124 | CAAGTCCC | -0.3
125 | AAATTCTA | 0.402

Row | Sequence | binding signal [E-score]
126 | AATGAAGC | -0.0835
127 | CATCACTC | 0.0678
128 | GAGGTTGC | -0.0928
129 | TAACCATA | 0.115
130 | AAAGACGT | -0.0127
131 | GTCGCCTA | -0.0954
132 | CACGGTGG | -0.193
133 | AATATTTA | 0.325
134 | CACCTTAC | 0.0353
135 | CTGACTAA | 0.009
136 | AAGTCTTG | -0.119
137 | AAGATAGA | 0.175
138 | CAAGGGCG | -0.301
139 | ATCGTGTG | -0.0227
140 | CCTCGCCG | -0.322
141 | AGAAAGAC | -0.0288
142 | CTCCGTGC | -0.149
143 | CGTATGGC | -0.145
144 | AGTCATAC | 0.018
145 | TCGTCAAA | -0.0353
146 | CGCGCTCC | -0.232
147 | CGTCACAA | -0.0647
148 | CCTTTACC | -0.217
149 | CGTCTCAA | -0.0469
150 | AGATGAAT | 0.225

Row | Sequence | binding signal [E-score]
151 | AGCATCCC | -0.18
152 | GGTAGAGA | 0.0752
153 | AACGAAAT | 0.331
154 | CCATTCCG | -0.00915
155 | GAACCCAA | -0.176
156 | GAACGGTA | 0.255
157 | AGGTTTAA | 0.00862
158 | GCTCCCCA | -0.366
159 | ATGCAAAA | 0.086
160 | CACTAATA | 0.277
161 | ATAATAGG | 0.167
162 | ATCTATGA | 0.178
163 | AATCCTTC | -0.167
164 | GACCGACA | -0.0167
165 | GCAGGAGA | -0.192
166 | GAAGATAA | 0.117
167 | AACTACAG | 0.337
168 | CTGCAGCA | 0.213
169 | CGATTTCC | -0.0112
170 | AAGATTAT | 0.289
171 | ACGCGGCC | -0.24
172 | AAGGCTAT | -0.199
173 | AAAGATGC | -0.0831
174 | GCTTTCTA | 0.224
175 | GTCACTAA | -0.0154

Row | Sequence | binding signal [E-score]
176 | AAACGCAG | -0.146
177 | ATCCTGAC | -0.142
178 | GGGATCAA | 0.0221
179 | CAGCGTCA | -0.205
180 | TAACAGTA | 0.355
181 | CCCCCAGC | -0.422
182 | CTAAAGCA | -0.0104
183 | ACCTGCGT | -0.189
184 | AGCATGGC | -0.327
185 | AAACCGGC | -0.0499
186 | CGCAACCG | -0.092
187 | ATGTAGCA | 0.233
188 | TACTCCTA | 0.126
189 | ACGTCCGA | -0.0091
190 | TAAGGAGA | -0.0803
191 | CACGCCGA | -0.14
192 | TAGGAGCA | -0.0731
193 | CCTGCCCG | -0.33
194 | AAAGGCGA | -0.11
195 | GGTCCTAA | -0.0696
196 | AAGCCTCG | -0.187
197 | AAACGTGC | 0.127
198 | AGCCCCAC | -0.388
199 | AACGAATC | 0.137
200 | GGTTTTAC | 0.16

Row | Sequence | binding signal [E-score]
201 | CTACGTAC | 0.231
202 | AAGGGAAC | -0.093
203 | CCGAAGCG | -0.105
204 | ATGACAAG | 0.0668
205 | ACCCAATA | 0.213
206 | GAGTCCGC | -0.132
207 | AGTTCCGC | -0.0507
208 | GACTGGTA | 0.199
209 | GACAAGCC | -0.225
210 | GTGGGACA | -0.0885
211 | AGTTGCTC | 0.000305
212 | ATCGAAAG | -0.178
213 | ATTCAGTC | -0.00892
214 | AACTGCGC | -0.145
215 | TAAATATA | 0.394
216 | CGTGGGAA | -0.173
217 | GACTTGGA | -0.00876
218 | TTCGGCAA | 0.0314
219 | GGAAAGCC | -0.374

Source: publication PMC6212790
